The full ranking holds about 110,000 compounds; the median of “z-score” is about -0.1, and the highest 2% start at about 2. The list shows a part of the results. Activity calls are given as the source filed them.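 Rule for the calls: active = z-score in the third read window above 3 or below -3; inactive = the rest.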

This is an account of results in PubChem BioAssay AID488969 (Vanderbilt High Throughput Screening Facility, 2010).

The assay deals with Metabotropic glutamate receptor 8 (Rattus norvegicus) (UniProt P70579). Kind of assay: mGluR8 Gi/Go-coupled signaling modulation – cell-based, rat, thallium flux, HTS, primary screen (AID 488969). The conditions noted are these: HEK293 rat mGluR8, GIRK (G protein-gated inwardly rectifying potassium channel) thallium flux, FluoZin2; at 10 µM; stronger effect = higher value; submaximal glutamate (EC20) added with thallium.
Sequence of UniProt P70579 (P70579 whole entry, looked up): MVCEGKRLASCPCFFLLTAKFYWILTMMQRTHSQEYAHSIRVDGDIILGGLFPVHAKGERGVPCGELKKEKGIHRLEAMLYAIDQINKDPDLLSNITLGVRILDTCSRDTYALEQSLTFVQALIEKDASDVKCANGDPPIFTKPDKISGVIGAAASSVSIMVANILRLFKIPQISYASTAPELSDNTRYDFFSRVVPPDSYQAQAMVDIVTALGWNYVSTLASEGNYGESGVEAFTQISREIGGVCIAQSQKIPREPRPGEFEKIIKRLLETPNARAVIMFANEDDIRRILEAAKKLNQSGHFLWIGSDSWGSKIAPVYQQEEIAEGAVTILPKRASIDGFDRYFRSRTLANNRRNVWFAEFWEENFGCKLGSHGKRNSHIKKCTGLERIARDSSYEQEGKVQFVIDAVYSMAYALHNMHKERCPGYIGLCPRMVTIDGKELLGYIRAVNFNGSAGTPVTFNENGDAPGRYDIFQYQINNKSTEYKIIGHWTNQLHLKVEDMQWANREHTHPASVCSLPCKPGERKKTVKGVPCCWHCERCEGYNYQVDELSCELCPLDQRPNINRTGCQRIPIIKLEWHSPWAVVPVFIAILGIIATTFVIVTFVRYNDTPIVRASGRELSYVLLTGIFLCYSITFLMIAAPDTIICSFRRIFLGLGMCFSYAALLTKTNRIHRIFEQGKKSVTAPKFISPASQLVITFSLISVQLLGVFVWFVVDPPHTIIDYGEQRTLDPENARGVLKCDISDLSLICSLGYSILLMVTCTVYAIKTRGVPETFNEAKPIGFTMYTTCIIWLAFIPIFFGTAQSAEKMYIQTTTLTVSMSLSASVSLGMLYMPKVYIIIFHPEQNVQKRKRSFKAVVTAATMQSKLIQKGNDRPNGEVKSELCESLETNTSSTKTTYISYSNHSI
For the compound `C=CCNC(=O)c1onc(CSc2cccc(C)c2)c1C(=O)O`, the z-score is -0.196. With `O=C(CCC(=O)N1CCN(S(=O)(=O)c2ccccc2)CC1)c1cccs1` the figure was 0.331; with `CCOC(=O)C1CCCN(C(=S)Nc2cc(C)cc(C)c2)C1` (stereo unspecified), 0.031; with `COc1cc(/C=N\Nc2nc3ccccc3[nH]2)cc(OC)c1OC`, -0.286. Next, `O=C(NCc1ccc(Cl)cc1)c1cnccn1`: -0.0849; `Oc1ccc(C=NCC2COc3ccccc3O2)cc1` (stereo unspecified): -0.00244. Next, `Cc1ccc(/C=N/N2C(=S)SC(C)(C)C2N(O)C(=O)Nc2ccc([N+](=O)[O-])cc2)cc1` (stereo unspecified): -0.809. For the compound `CC(=O)N1CCCc2cc(S(=O)(=O)CCC(=O)N3CCN(c4cccc(C)c4)C(C)C3)ccc21` (stereo unspecified), the z-score was -0.267.

`Cc1c(Br)cc(C(=O)N2CCN(CCO)CC2)c(C)c1C`: the z-score was -0.0112. With `COC(=O)c1ccc2c(=O)n(C3CCCCC3)c(SCC#N)nc2c1` the figure was active: 3.63.

The compound `COc1ccccc1S(=O)(=O)Cc1ccc(C(=O)NCc2cccnc2)o1` gave a z-score of -0.0398.

Compound `O=C(NC1=NCCS1)c1sc2ccccc2c1Cl` showed a z-score of -0.198.

As to `COc1cccc(-c2cc(C(=O)NN3CCOCC3)c3ccccc3n2)c1`, the z-score was -0.134. Compound `Cn1c(=O)n(Cc2ccc(Cl)cc2)c2ccccc21` returned a z-score of -0.403.

In turn, `Fc1ccc(CN2CCCCCCC2)cc1` showed a z-score of 0.111. Next, `Cc1cc(NC(=O)c2cc(CC(C)C)on2)n(-c2ccccc2)n1`: 0.79; `O=C(CSc1ccccc1)Nc1cccc(S(=O)(=O)N2CCCC2)c1`: 0.307; `O=C(COc1ccc(Cl)cc1)NCc1nnc2c3ccccc3c(-c3ccccc3)nn12`: -0.373.

`CCOC(OCC)P(=O)(C(C)C)C(C)C` came in with a z-score of 0.537. With `CCOC(=O)c1sc2nc3c(SCCC#N)cc(C(=O)c4cc(F)ccc4O)cn3c(=O)c2c1C` the figure was -0.261; with `O=C(Nc1ccc2c(c1)CCC2)c1ccc(F)cc1`, 0.17; with `CC(/C=C/c1ccco1)=N\NC(=O)c1cccnc1`, -0.148. With `Cc1nc(-c2ccccc2O)n(-c2ccccc2)n1` the figure was 0.0312. With `Clc1ccc(Cl)c(OCc2cc(-c3ccccc3Cl)on2)c1` the figure was -1.04; with `COc1ccc(NC2=NC(=S)N(c3cccc(C)c3)C23CCCCC3)cc1`, 1.22. On to `COCCCNCCCOc1ccc(C(C)(C)c2ccccc2)cc1`, for which the z-score was 0.152. With `Cc1nc2ccc(C(=O)O)cc2nc1C` the figure was -0.172; with `Cc1ccc(-n2ncc(C(=O)NCc3ccc4c(c3)OCO4)c2NC(=O)c2ccco2)cc1C`, 0.00765. With `Cc1cc(/C=C2/C(=N)N3C(c4ccccc4)=CSC3=NC2=O)c(C)n1-c1ccccc1` the figure was 0.0803; with `O=[N+]([O-])c1ccc(N2CCOCC2)nc1`, -0.261.

`CCOc1ccc(NCC(=O)Nc2ccc(C)cc2C)cc1` had a z-score of -0.135.

As to `CCC(C)[C@H](NC(=O)NCCCn1ccnc1)C(=O)OC` (stereo partly specified), the z-score was -0.23.

Consider `Cc1cc(=O)[nH]c(-c2ccccc2)n1`, for which the z-score is -0.314. `CCOC(=O)C1=C(CSc2nc(C)cc(C)c2C#N)OC(N)=C(C#N)C1c1ccccc1` (stereo unspecified) displayed a z-score of -0.479. Compound `Cc1cc2nnc(SCc3ccccc3)n2c(N)n1` returned a z-score of -0.298. With `CCOC(=O)c1sc(NC(=O)COC(=O)c2ccco2)nc1C` the figure was 0.0458; with `COc1ccc(Cl)cc1NC(=O)CSc1nnc(CN2CCOCC2)n1-c1ccc(Cl)cc1`, -0.416.

The compound `N#CC1=C(N)NC(SCc2ccc(Br)cc2)=C(C#N)C12CCCCC2` returned a z-score of 0.18. With `Cc1ccc(C)c2[nH]c(=O)c(CCNS(=O)(=O)c3ccccc3)cc12` the figure was 0.0635; with `Cc1cc(-c2ccccc2)n(-c2ccc(C(=O)NC(C)C)cc2)n1`, -0.189; with `COC(=O)Nc1ccc2c(c1)N(C(=O)CCN1CCN3CCCC3C1)c1ccccc1S2` (stereo unspecified), -0.481. Compound `O=C(NCCCn1ccnc1)/C(=C\c1cccs1)NC(=O)c1ccco1` came in with a z-score of -0.345. Regarding `C#CCn1c(S(=O)(=O)Cc2ccccc2Cl)nc(-c2ccccc2)c1-c1ccccc1`, the z-score was -0.358. Compound `CCC(CC)C(=O)Nc1ccc(Cl)c(Cl)c1` yielded a z-score of -0.495. With `CCN(CCNC(=O)Cn1c(=O)sc2ccccc21)c1ccccc1` the figure was -0.053; with `CCOC(=O)c1nc(Nc2ccccc2)c2ccccc2n1`, -0.162. Next, `COc1cc(NC(=S)NCCSc2ccc(C)cc2)cc(OC)c1`: -0.204; `Cc1ccc(Cn2nc(C)c(NC(=O)CSc3nc4c(c(C(F)(F)F)n3)CCc3ccccc3-4)c2C)cc1`: -0.26. On to `O/N=C/c1cc(Cl)ccc1OCc1cccc2ccccc12`, for which the z-score came to 2.76. `O=C(CCC1CCCC1)Nc1ccon1` registered a z-score of -0.0106.

For the compound `Cc1[nH]nc(-c2ccc(OCc3cnn(-c4ccccc4)c3)cc2O)c1Oc1ccc(Cl)cc1`, the z-score is -0.0976. Compound `N/C(=N\OC(=O)COc1ccccc1)c1ccccn1` registered a z-score of 0.0424. With `CCCCc1nc(Cl)c(C#N)c2c1CCCC2`, the z-score is -0.174.

`COc1ccc(-c2nc(Cc3ccc(Cl)cc3)no2)cc1OC` registered a z-score of -0.563. With `O=C(Nc1nnc(SCc2ccc(F)cc2)s1)C1CC(=O)N(c2ccc3c(c2)OCCO3)C1` (stereo unspecified) the figure was active: 3.68; with `Cc1ccc(S(=O)(=O)NCCCNC(=O)N2CCOCC2)cc1`, -0.248; with `Cc1cc(NC(=O)CC(C)(C)C)nc2c1c(=O)oc1ccccc12`, 0.671.

Compound `CS(=O)(=O)N(CC(=O)NCCSC1CCCCC1)c1cccc(F)c1` returned a z-score of -0.0553. Next, `O=C(N/N=C/C=C\c1ccccc1[N+](=O)[O-])c1ccccn1`: -0.0802; `Cc1nnc(NC(=O)CSc2nnc(Cc3ccccc3)n2-c2ccccc2)s1`: -0.123; `O=C(CSc1nnc2scc(-c3ccc(Cl)cc3)n12)NCc1ccc2c(c1)OCO2`: -0.42.

`Cc1cccc(NC(=S)/N=C(\N)Nc2nc(C)c3ccc(C)cc3n2)c1` gave a z-score of -0.215. With `Cc1cc(C)cc(NC(=S)NCc2ccc(F)cc2)c1` the figure was 0.26; with `COc1ccc(CC(=S)N2CCOCC2)cc1F`, -1.4; with `CCC1=NC(c2ccc(OC)c(OC)c2)N(O)C1(C)C` (stereo unspecified), -0.349.

Take `Cc1nn(C(C)(C)C)c(OC(=O)c2ccco2)c1Sc1ccccc1`: the z-score is -0.112. Next, `[N-]=[N+]=CC(=O)CC(c1ccccc1)N1C(=O)c2ccccc2C1=O` (stereo unspecified): 0.692; `COC1(OC)C(/C=C/c2ccc(C)cc2)C(C#N)(C#N)C1(OC)OC` (stereo unspecified): -0.364. Take `CN(C(=O)c1ccccc1)c1ccc(OCC(=O)NC2CCS(=O)(=O)C2)cc1` (stereo unspecified): the z-score was 0.202. Next, `COC(=O)c1[nH]c(C)c(/C(O)=C2\C(=O)C(=O)N(CCN(C)C)C2c2cccs2)c1C` (stereo unspecified): -0.364; `CC(C)OC(=O)CCCN1C(=O)c2ccc(N)cc2C1=O`: -0.888. With `O=C(N/N=C\c1ccco1)Nc1cccc(Cl)c1` the figure was -0.392. The compound `CCn1c(CNC(=O)c2ccccc2)nc2ccccc21` gave a z-score of -0.178. `CCn1cnc2cc(NCc3ccc(C)cc3)ccc21` returned a z-score of -0.203. Next, `Cc1ccc(/C=N/N2C(=O)C3C(C2=O)C2C=CC3C23CC3)o1` (stereo unspecified): -0.147; `O=C1N/C(=N\N=C\c2ccc3ncccc3c2)SC1Cc1ccc(SC(F)F)cc1` (stereo unspecified): -0.253; `CSc1ccccc1NC(=O)c1c(C)noc1C`: -0.561.

`CCCCn1c(SCC(=O)N2CC(=O)Nc3ccccc32)nnc1-c1ccoc1C` showed a z-score of -0.111. The compound `CCOC(=O)C1CCN(C(C(=O)NC2CCCC2)c2ccc(C)cc2)CC1` (stereo unspecified) came in with a z-score of -0.427. Compound `Cc1ccc(C#N)c(SCc2cc3c(cc2Cl)OCO3)n1` had a z-score of -0.345.

As for `COc1ccc(S(=O)(=O)N(C)CC(=O)Nc2ccccc2C(F)(F)F)cc1`, the z-score turned out to be 0.34.

The compound `Cc1ccc(N2CC(C(=O)Oc3cccc(N4C(=O)CCC4=O)c3)CC2=O)cc1` (stereo unspecified) showed a z-score of -2.47. Next, `Cc1[nH][nH]c(=O)c1C(c1c(C)[nH][nH]c1=O)c1cn(Cc2ccc(Cl)c(Cl)c2)c2ccccc12`: -0.275. Next, `Cc1cccc(C(=O)O/N=C/c2c(Cl)n(C)c3ccccc23)c1`: 0.132.

`COC(=O)c1ccc(/C=N/NC(=O)CC(=O)NC(C)C)cc1` had a z-score of -0.108. With `O=C1CCCc2c1cc(C(=O)Nc1ccc(Br)cn1)c(=O)n2-c1ccccc1` the figure was -0.203. With `COc1ccccc1NC(=O)Cn1cnc2c(cnn2-c2ccccc2)c1=O` the figure was -0.593. For the compound `CCCCC[n+]1ccn(C2=C([O-])c3ccccc3C(=O)/C2=N\S(=O)(=O)c2ccccc2)c1`, the z-score was -0.188. With `CC1CCCCN1C(=O)Cn1c(=O)n(CCC(=O)NCc2ccco2)c(=O)c2sccc21` (stereo unspecified), the z-score is -0.686. With `CCCCN(C(=O)CN1CCOCC1)c1c(N)n(CC(C)C)c(=O)[nH]c1=O` the figure was -0.17. With `Cc1ccc2oc(=O)c3cnn(CC(=O)N4CCCc5ccccc54)c3c2c1`, the z-score was -0.255. With `COC(=O)C1CCN(C(=O)c2c(-c3ccccc3Cl)noc2C)CC1` the figure was 0.00573. With `COc1ccc(C(=O)Nc2cccnc2)cc1` the figure was 0.000698; with `CC(C)C1=NN2C(=N)CC(=O)N=C2S1`, 0.235; with `CCOc1ccc(C2=NNC(c3cccs3)=Nc3ccc(OCC)cc32)cc1`, -0.166. Next, `N#Cc1c(-c2ccccc2)cc(-c2ccco2)c(C#N)c1N`: -0.84; `COc1ccc(C(CNC(=O)c2cc3ccccc3cc2OC)N2CCCC2)cc1` (stereo unspecified): 0.898. Compound `COc1ccc(-c2cn3cccnc3n2)cc1NC(=O)C1CCCC1` yielded a z-score of 1.23. With `Cc1ccc2nc(/C(C#N)=N/O)[nH]c2c1` the figure was -0.703; with `COC(=O)C(C)Sc1nc2c(c(=O)n(C)c(=O)n2C)n1Cc1cccc(C)c1` (stereo unspecified), active: -3.65; with `CCN(CC)Cc1c(-c2ccccc2)[nH]c2ccc(C)cc2c1=O`, 0.0208. The compound `CCCn1c(N)c(C(=O)CSc2nnnn2-c2ccc(O)cc2)c(=O)n(C)c1=O` yielded a z-score of -0.148. Next, `CC1CN=C(NC2CCCCC2C)S1` (stereo unspecified): 0.0666; `CCc1cc(C(=O)NNC(=S)Nc2cc(C)ccc2C)cs1`: active: 6.35; `OCCSc1nnc(Nc2ccccc2)s1`: 0.0141. With `O=C(c1ccccc1)N1CCN(C(=O)C23CC4CC(CC(C4)C2)C3)CC1` the figure was 0.736; with `O=C1c2ccccc2NC(c2cccc(Cl)c2)N1N=C1CCCCCC1` (stereo unspecified), -0.359; with `CCC(Sc1nc2cc(OC)c(OC)cc2c(=O)n1Cc1ccco1)C(=O)NCCOC` (stereo unspecified), -0.352. Compound `COc1ccc(OC)c(NC(=S)NCCCN2CCOCC2)c1` registered a z-score of 0.347. Compound `CCOc1cc(NC(=O)C2CCCCC2)c(OCC)cc1NC(=O)c1ccco1` registered a z-score of -0.0375. Next, `O=C(NCCCCc1ccccc1)C12CN(Cc3ccccc3)CC1C(c1ccc([N+](=O)[O-])cc1)=NO2` (stereo unspecified): 0.105.
